The list shows a part of the results.
B1: PhoQ; a variant is named by its letters at X, in order, P23837 (parent)
chain: MKKLLRLFFPLSLRVRFLLATAAVVLVLSLAYGMVALIGYSVSFDKTTFRLLRGESNLFYTLAKWENNKLHVELPENIDKQSPTMTLIYDENGQLLWAQRDVPWLMKMIQPDWLKSNGFHEIEADVNDTSLLLSGDHSIQQQLQEVREDDDDAEMTHSVAVNVYPATSRMPKLTIVVVDTIPVELKSSYMVWSWFIYVLSANLLLVIPLLWVAAWWSLRPIEALAKEVRELEEHNRELLNPATTRELTSLVRNLNRLLKSERERYDKYRTTLTDLTHSLKTPLXXLQXXLRSLRSEKMSVSDAEPVMLEQISRISQQIGYYLHRASMRGGTLLSRELHPVAPLLDNLTSALNKVYQRKGVNISLDISPEISFVGEQNDFVEVMGNVLDNACKYCLEFVEISARQTDEHLYIVVEDDGPGIPLSKREVIFDRGQRVDTLRPGQGVGLAVAREITEQYEGKIVAGESMLGGARMEVIFGRQHSAPKDE

Variants of: B1
Experiment: enrichment ratio after two sorts for PhoP signalling (ratio (wild type AVST 3.29)); higher = more functional
Conditions: with PhoP (E. coli)

| Variant | enrichment ratio |
| --- | --- |
| HFIR | ≤ 0.25 |
| WHYT | ≤ 0.25 |
| IDNN | ≤ 0.25 |
| PTRC | ≤ 0.25 |
| GSVT | 0.744 |
| THVD | ≤ 0.25 |
| LMTY | ≤ 0.25 |
| FHLT | ≤ 0.25 |
| LDRD | ≤ 0.25 |
| RFSK | ≤ 0.25 |
| SAEP | ≤ 0.25 |
| MVKS | ≤ 0.25 |
| QMTQ | ≤ 0.25 |
| WESY | ≤ 0.25 |
| ANTL | 12.9 |
| RRAY | ≤ 0.25 |
| GLHH | ≤ 0.25 |
| SGPI | ≤ 0.25 |
| QYRY | ≤ 0.25 |
| MLHP | ≤ 0.25 |
| YHTR | ≤ 0.25 |
| EAGI | ≤ 0.25 |
| RSMN | ≤ 0.25 |
| TEFW | ≤ 0.25 |
| RGCA | ≤ 0.25 |

| Variant | enrichment ratio |
| --- | --- |
| LWCL | ≤ 0.25 |
| FREV | ≤ 0.25 |
| KTDY | ≤ 0.25 |
| HAKC | ≤ 0.25 |
| TCRL | 4.94 |
| RRGW | ≤ 0.25 |
| DKMY | ≤ 0.25 |
| PLRT | ≤ 0.25 |
| PCAQ | ≤ 0.25 |
| TVAK | 9.5 |
| WDWD | ≤ 0.25 |
| SCGA | 7.34 |
| EYKC | ≤ 0.25 |
| LGIK | ≤ 0.25 |
| RSMS | ≤ 0.25 |
| GRRV | ≤ 0.25 |
| DYCP | ≤ 0.25 |
| YILL | 4.71 |
| VILD | ≤ 0.25 |
| HRIW | ≤ 0.25 |
| TWDM | ≤ 0.25 |
| PCHI | ≤ 0.25 |
| NDVN | ≤ 0.25 |
| FASE | ≤ 0.25 |
| FVKD | ≤ 0.25 |

| Variant | enrichment ratio |
| --- | --- |
| DRGP | ≤ 0.25 |
| IFGF | ≤ 0.25 |
| RCQF | ≤ 0.25 |
| GTVN | ≤ 0.25 |
| KYQD | ≤ 0.25 |
| RRFF | ≤ 0.25 |
| MWTW | ≤ 0.25 |
| QIYK | ≤ 0.25 |
| PLMP | ≤ 0.25 |
| WYRM | ≤ 0.25 |
| SPDT | ≤ 0.25 |
| DNHW | ≤ 0.25 |
| AGWK | ≤ 0.25 |
| EVQQ | ≤ 0.25 |
| PHET | ≤ 0.25 |
| FAFY | ≤ 0.25 |
| RLYM | ≤ 0.25 |
| PCRT | ≤ 0.25 |
| AKKH | ≤ 0.25 |
| HRPP | ≤ 0.25 |
| SCFV | ≤ 0.25 |
| MGPS | ≤ 0.25 |
| VGSV | 2.7 |
| RAQV | ≤ 0.25 |
| SCFP | ≤ 0.25 |

| Variant | enrichment ratio |
| --- | --- |
| THNG | 4.5 |
| IKSN | ≤ 0.25 |
| ESLV | ≤ 0.25 |
| WKLN | ≤ 0.25 |
| RKDM | ≤ 0.25 |
| HGWV | ≤ 0.25 |
| TDPL | ≤ 0.25 |
| LWAE | ≤ 0.25 |
| HTNR | ≤ 0.25 |
| LYYQ | ≤ 0.25 |
| TAFN | 1.93 |
| MRKM | ≤ 0.25 |
| HHCQ | ≤ 0.25 |
| FTNG | ≤ 0.25 |
| KEHF | ≤ 0.25 |
| MMGV | ≤ 0.25 |
| RYMG | ≤ 0.25 |
| GEWP | ≤ 0.25 |
| AQGL | 0.616 |
| ICWD | ≤ 0.25 |
| FTRP | ≤ 0.25 |
| YAQH | ≤ 0.25 |
| IIQH | ≤ 0.25 |
| MYYA | ≤ 0.25 |
| LSNM | ≤ 0.25 |

| Variant | enrichment ratio |
| --- | --- |
| RFMH | ≤ 0.25 |
| RRFQ | ≤ 0.25 |
| GMLW | ≤ 0.25 |
| TGDP | ≤ 0.25 |
| HREW | ≤ 0.25 |
| ISAI | ≤ 0.25 |
| GTMH | ≤ 0.25 |
| VCYR | ≤ 0.25 |
| IRCK | ≤ 0.25 |
| YTVK | ≤ 0.25 |
| RSDD | ≤ 0.25 |
| PQHY | ≤ 0.25 |
| LFHF | ≤ 0.25 |
| TAIE | ≤ 0.25 |
| VYRA | ≤ 0.25 |
| LFRY | ≤ 0.25 |
| VWES | ≤ 0.25 |
| NKGV | ≤ 0.25 |
| NRCN | ≤ 0.25 |
| IKPI | 3.95 |
| KHHL | ≤ 0.25 |
| KFNA | ≤ 0.25 |
| ESCE | ≤ 0.25 |
| SLKN | ≤ 0.25 |
| YYFR | ≤ 0.25 |

| Variant | enrichment ratio |
| --- | --- |
| KFVL | ≤ 0.25 |
| VVPT | ≤ 0.25 |
| SAVK | 1.37 |
| GDRD | ≤ 0.25 |
| QFRE | ≤ 0.25 |
| SRAP | ≤ 0.25 |
| SHPF | ≤ 0.25 |
| HIWS | ≤ 0.25 |
| HEDA | ≤ 0.25 |
| REWS | ≤ 0.25 |
| TNFV | ≤ 0.25 |
| IAAE | ≤ 0.25 |
| HEWG | ≤ 0.25 |
| ECPD | ≤ 0.25 |
| SWAE | ≤ 0.25 |
| ACSK | 4.64 |
| MKFV | 2.26 |
| FRRC | ≤ 0.25 |
| TIHK | 3.94 |
| NRPT | ≤ 0.25 |
| VAGC | 3.06 |
| DVPS | ≤ 0.25 |
| FRDE | ≤ 0.25 |
| EVRD | ≤ 0.25 |
| GDSV | 6.2 |

| Variant | enrichment ratio |
| --- | --- |
| QSNI | ≤ 0.25 |
| FKTD | ≤ 0.25 |
| IPEI | ≤ 0.25 |
| RHSW | ≤ 0.25 |
| DMDY | ≤ 0.25 |
| IEQQ | ≤ 0.25 |
| PYTE | ≤ 0.25 |
| GSEV | ≤ 0.25 |
| DCMM | ≤ 0.25 |
| TCGP | 1.63 |
| PIQA | ≤ 0.25 |
| FKLN | ≤ 0.25 |
| FDGW | ≤ 0.25 |
| SLCK | 8.42 |
| VNDN | ≤ 0.25 |
| YEHY | ≤ 0.25 |
| YETD | ≤ 0.25 |
| WCDW | ≤ 0.25 |
| HEIC | ≤ 0.25 |
| VWVE | ≤ 0.25 |
| LVED | ≤ 0.25 |
| GAKR | ≤ 0.25 |
| AREW | ≤ 0.25 |
| VTWW | ≤ 0.25 |
| MDVH | 3.03 |

| Variant | enrichment ratio |
| --- | --- |
| KVGK | ≤ 0.25 |
| YKRM | ≤ 0.25 |
| APLT | ≤ 0.25 |
| FNVC | ≤ 0.25 |
| WEMS | ≤ 0.25 |
| TRVP | ≤ 0.25 |
| ILTD | ≤ 0.25 |
| GFCS | ≤ 0.25 |
| VQRG | ≤ 0.25 |
| YVCI | ≤ 0.25 |
| PWWW | ≤ 0.25 |
| LVHM | ≤ 0.25 |
| PTGH | ≤ 0.25 |
| MSTV | 11.1 |
| AYCR | ≤ 0.25 |
| KSSK | ≤ 0.25 |
| SANK | ≤ 0.25 |
| YWNH | ≤ 0.25 |
| LGGW | ≤ 0.25 |
| FMWG | ≤ 0.25 |

Reference: a collection of fitness landscapes (doi:10.1126/science.1257360)
